# Reference: the supplement of paper PMC3334620
# In all, about 33,000 sequences were measured (“E-score (-0.5 to 0.5)”: median about -0.016, highest 2% from about 0.31 on). Some of the results follow.
# Target: Cst6 (UniProt P40535)
# Test: PBM E-score (8-mer binding enrichment) (E-score (-0.5 to 0.5)); higher = stronger / more preferred TF binding; most listed sequences are background and not binding sites
# Conditions: protein concentration: 200 nM; construct: GST-DNA-binding domain
# Summary of the method: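 Bound GST-tagged yeast transcription factors, applied at about 100-200 nM to double-stranded universal all-10-mer Agilent arrays, were detected with fluorescent anti-GST. Scans were normalised with masliner. A modified Wilcoxon-Mann-Whitney statistic, the E-score, was assigned to each ungapped eight-base word pooled with its reverse complement by the Universal PBM Analysis Suite.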
row,Sequence,PBM E-score
1,ATCAGCGA,0.0226
2,CTTATGGA,-0.131
3,GGTCATAC,0.151
4,GCCCCTCA,-0.255
5,AACGTGAA,0.0952
6,CTCTGACC,-0.23
7,CTTCTGTC,0.121
8,ACATGTAC,-0.0906
9,CGCATTTC,0.0285
10,CGGGAAAG,0.00149
11,ACGGTCAT,0.266
12,ATAACGCA,0.0368
13,GTAGGTAA,0.00543
14,TAACCACA,0.0592
15,CCGGAAAG,-0.23
16,TGTAAACA,0.23
17,CATCGCTA,0.0705
18,GGCTAACC,-0.339
19,GCTCGTCA,0.238
20,AAACTAAA,0.271
21,ACAGCTAC,-0.145
22,CTAATGTA,0.0407
23,GAAGAAAC,0.0417
24,ATAGACCC,0.0462
25,CAGTCGAC,0.0605

row,Sequence,PBM E-score
1,AGTCTGTA,-0.118
2,GGCTCCAA,-0.122
3,AGAGTGGC,-0.145
4,GATGAAGA,-0.0603
5,GAGCCCGC,-0.165
6,ATCGCATC,-0.00109
7,CCAAATCA,0.0402
8,GGACGTAA,0.279
9,GGGAACTA,-0.0863
10,CACGGAGC,0.0494
11,ACCCCCGA,-0.175
12,GCATACCA,-0.0814
13,ACCCATGA,0.0173
14,ACGGATGC,0.0837
15,TGGATCAA,0.125
16,GTAAGGAC,-0.0194
17,GTAACGGA,0.137
18,AAGAGCTT,-0.156
19,GTTTAAAC,0.245
20,ACAGGACG,-0.1
21,AACTGGAG,-0.198
22,AGGTCTGC,-0.212
23,ATAGAAAC,0.228
24,AACGTATC,0.036
25,CCGGTACC,-0.178

row,Sequence,PBM E-score
1,CCAGCAGG,-0.192
2,GTGCGGTA,0.146
3,CTTACTCA,0.00832
4,AGCTCAAT,-0.0231
5,AGTAGAGC,-0.269
6,TGTCCGAA,0.0935
7,AGGTTGAG,-0.192
8,ATAATGAC,0.295
9,CTGCGCCA,0.0169
10,AACTTCGC,0.0226
11,ACAGGAGC,0.00619
12,AACCTCTA,-0.14
13,CTGTTTTC,0.105
14,CGTGTAAG,0.175
15,TATGACCA,0.202
16,GATTCCAA,0.0676
17,GCGTGCCA,-0.0975
18,ATACTATC,0.0849
19,CCCAGGAC,-0.267
20,GAAGTGTA,-0.0897
21,CCTCCGTC,-0.158
22,AATACTAC,0.266
23,AGTAGACG,0.169
24,ACGCTATC,0.093
25,CTAGATCC,-0.259

row,Sequence,PBM E-score
1,CCTAAACC,-0.199
2,GCCTGTGA,-0.0478
3,GTCGTCAC,0.425
4,ACGGTGAA,0.0928
5,ATTATTAG,0.115
6,GGTCTCAA,0.0339
7,AGCATGCT,-0.223
8,CGACACAG,0.0676
9,CCCAACAA,0.108
10,GTTGTTCA,0.0498
11,TAGTACTA,0.0109
12,ACCGCCGG,-0.221
13,GAATTAAA,0.0775
14,CTACGTTA,0.224
15,ATTAGGTC,0.234
16,AGCACTTA,0.0268
17,CACCCAGG,-0.169
18,CCACGGAG,-0.0306
19,AAGCTAAG,-0.252
20,TCCAAGAA,-0.0124
21,TTCTCAAA,0.266
22,CCAGTTTC,-0.203
23,AACTACCA,-0.00731
24,GGTCGTCA,0.272
25,CACCACGG,-0.301

row,Sequence,PBM E-score
1,GCTCTGCA,-0.25
2,AAGCTTAA,0.00673
3,CTAAACCC,-0.0875
4,ATTTTGGG,0.0505
5,CAAACTTA,0.2
6,CACATACA,-0.0631
7,ATAGAGGG,-0.0244
8,ACTTCTCC,-0.236
9,ATACCTAT,-0.00445
10,CGTCTCAC,-0.0564
11,AATGCAAG,0.0391
12,CAATCCGC,-0.0548
13,CGAGAGAC,-0.238
14,GCGAGTGA,0.135
15,AACATCAA,0.236
16,TGGTAAAA,0.219
17,ACTAAGAT,0.139
18,CGTAGGTC,-0.174
19,ATTGGGCG,-0.066
20,AATCACGC,0.0689
21,CTATTTAC,0.147
22,ATATATTG,0.109
23,GAGCTGAA,-0.178
24,TATTGCGA,0.207
25,CTGGTATA,-0.221

row,Sequence,PBM E-score
1,TCCCGCCA,-0.313
2,GGCTTATA,0.0535
3,ACCGAGTA,-0.136
4,AAGCTACA,-0.0187
5,ATGCTTAA,0.0356
6,CATCACGC,0.207
7,AAGATTAA,0.177
8,GAAACCTA,-0.148
9,GACCCTTA,-0.1
10,CATTCCTC,-0.155
11,TCATGTAA,0.273
12,AGCGGCCC,-0.405
13,AAATGCGT,0.143
14,GAGTCTGA,-0.186
15,ATTTGTAC,0.151
16,CATAGACA,0.147
17,CAAGCCTG,-0.0975
18,ATGTTGCC,-0.0139
19,GCGTTCAC,-0.104
20,ACTACAGT,0.15
21,TGTTACAA,0.107
22,GTACTCGA,-0.111
23,GAGATCTA,-0.132
24,CATATGAA,0.165
25,AGCTAATC,0.201

row,Sequence,PBM E-score
1,TAGCCAGA,0.0135
2,GTCCACGA,-0.141
3,GGAGCTAC,-0.153
4,ACGCTCGC,-0.0376
5,AGAGTCTG,-0.36
6,AATTGTAA,0.0936
7,ACAGGGAA,-0.118
8,AGCCCAGC,-0.269
9,ACCATAAA,0.142
10,CCCAATAC,-0.0128
11,ATTTACCC,0.0182
12,GGAGTGTA,-0.197
13,GAGTGTCA,0.223
14,AGAGTGCA,-0.157
15,TAGACGAA,0.026
16,AAGAACCC,-0.0514
17,AGGAACGG,-0.0673
18,CTTAAAGA,-0.00756
19,CATAACAG,0.169
20,GCCCACCA,-0.262
21,CCCAAGCG,-0.308
22,AACTTGTA,0.174
23,ATTAACAC,0.26
24,CTTTGGTA,-0.148
25,GAATTTGA,0.0272

row,Sequence,PBM E-score
1,TAAGACTA,-0.0424
2,GAGAATCC,-0.127
3,CTTAATAC,0.117
4,ACCTCTCC,-0.198
5,AAAGATCG,0.0436
6,CGTCTCAG,-0.0355
7,GAAGGGAA,-0.123
8,AACTCGAG,-0.0652
9,CGAGCGTA,-0.0819
10,CATAGCTC,0.00697
11,ACAGTGGA,0.0174
12,CAGGGTCC,-0.322
13,CAGATTAC,0.145
14,ACGATGTA,0.104
15,CGATGATA,0.109
16,CTGTGTTC,-0.0438
17,AACGCATA,0.133
18,CAATACCC,-0.132
19,TCCGAAGA,-0.0693
20,CGATGGCA,-0.112
21,CGCAATAG,0.157
22,ACCGACGG,-0.0433
23,AACAGTGA,0.174
24,GTACAGTA,0.0186
25,AGTCACAG,-0.0682

row,Sequence,PBM E-score
1,CCCCCGCA,-0.311
2,CAGAAAGG,-0.0364
3,TTACGCAA,0.438
4,GCGTCCAA,-0.223
5,GTGATAAA,0.201
6,TGGCGAAA,-0.0838
7,TAGCACAA,-0.0337
8,CTTCAATA,0.16
9,CAGGGAAG,-0.244
10,CGGAGAAC,-0.231
11,TACGCTCA,0.183
12,AGCCAACC,-0.085
13,AAGACGAC,-3e-05
14,TGAGATCA,0.344
15,CTTCTTCC,-0.212
16,ACCGGGGA,-0.242
17,ACACTGCA,-0.154
18,ACGTTTGG,0.0774
19,AAGGCATC,0.00179
20,CTAAAGCA,-0.0723
21,ATGTATCG,0.16
22,ATCAGGTG,-0.0228
23,GTGTAAAC,0.0885
24,CTAGAGTC,-0.35
25,AGAGACTC,-0.149

row,Sequence,PBM E-score
1,CGAGTGCG,0.122
2,AGGCAGGC,-0.212
3,ATGGACAA,0.00817
4,AGGGTATG,0.0806
5,CCAATTCC,-0.0324
6,ATTATCGC,0.209
7,CGGAAAAA,0.13
8,AACTGTGG,-0.0509
9,CGCGTCAG,0.0126
10,GAGAGGAA,-0.172
11,ATACTCAT,0.0877
12,ACCAGAAC,-0.0452
13,AGAAAGGA,-0.0576
14,ATTTAACA,0.192
15,AATCAAAT,0.0206
16,GCACTCAA,-0.147
17,ACCCCGGA,-0.154
18,TGTACACA,0.133
19,ATTAAGAC,-0.0411
20,CCTGATTC,-0.163
21,ATATCACG,0.251
22,CGCATAAA,0.193
23,ACCTGGGC,-0.249
24,GGTTGAAC,-0.0634
25,CATTAACG,-0.0131

row,Sequence,PBM E-score
1,AAGAATCA,0.144
2,GCGTGTCC,-0.0468
3,ACACATGT,0.0996
4,CATTCAGA,0.134
5,ATCCGCTA,-0.0463
6,ACTACTTG,0.0469
7,ATTTCTAC,0.107
8,GCACGTGA,-0.00736
9,AACTTAAC,0.174
10,CAATCCCG,-0.026
11,GAAGCACA,-0.0852
12,ATACCGTG,0.0526
13,CCCCGGGG,-0.127
14,AACGTACT,0.0968
15,TCCAATAA,0.164
16,AAGGCAAT,0.183
17,ATAGCCTG,-0.229
18,AAGCCCAG,-0.233
19,GGTGTTGA,-0.0229
20,CGCCCCGC,-0.0223
21,ACATAGAC,0.076
22,GACTGCAA,-0.135
23,ACACATCC,-0.196
24,AAAGGATT,0.0172
25,CAACCACA,0.0622

row,Sequence,PBM E-score
1,CTGACAAA,0.136
2,AAAAGGCA,0.148
3,AAAGTGCT,-0.0406
4,AGCACCGA,0.0242
5,ATACTGGA,0.113
6,AAGATAGC,-0.0979
7,AAGCTTTG,-0.087
8,ATGTGAGC,-0.121
9,TCAGGTCA,0.0955
10,ACTCGTGA,0.0735
11,CGTCCCGC,-0.166
12,AACGTTCG,-0.18
13,CACCTGCG,-0.0641
14,ATATTGGC,0.0965
15,CCGGGTGA,-0.154
16,CTCGGCAG,-0.163
17,AAGTGCGT,0.0635
18,AAGCACCT,-0.123
19,GCATAAAA,0.215
20,GTATTCAA,0.138
21,ACGGAGCG,0.126
22,AACAGAAT,0.0264
23,ACTTTAAT,0.107
24,ATGCAGTA,0.122
25,GAAAGAGA,0.0803

row,Sequence,PBM E-score
1,ACCGTCCC,-0.173
2,CTTCTAGA,-0.0315
3,ATCCGCTG,-0.175
4,AACTTCCG,-0.133
5,ACTTCTAA,-0.0568
6,GCCCGTCC,-0.319
7,TACTTGCA,0.0481
8,ACGGTACG,0.0425
9,CCTACATA,-0.19
10,GGGTCTGA,-0.149
11,AGTCGAAA,0.0306
12,AGGTTCTG,-0.0864
13,GTGGCATA,-0.0571
14,TGCCAGAA,-0.153
15,GAGAAGAA,-0.0406
16,ACTGAGAG,-0.0714
17,AGCGATTG,-0.196
18,GTACCCGA,-0.287
19,ACACTGCT,-0.05
20,CTCTCCGA,-0.206
21,GATACACA,0.0163
22,CATTTTGG,0.0969
23,CTAAATCA,0.0639
24,AGAAATAG,0.102
25,AGGACATA,-0.0464

row,Sequence,PBM E-score
1,GACATAAA,0.276
2,GTCCTGTA,-0.106
3,GTATCCTA,-0.109
4,CACAGACG,-0.0598
5,TACATGAA,0.0609
6,CACCTCGG,0.02
7,ACTGGACT,-0.135
8,GGAACTCC,-0.141
9,AGTAGCTC,-0.186
10,ATATGCCG,0.221
11,TAGTTTCA,0.175
12,GTAAATAA,0.176
13,GACAGTCA,-0.0779
14,CCCAGACG,-0.271
15,ACTCTGAG,-0.194
16,CGGTCGTC,-0.203
17,ACCATGGT,-0.351
18,CCCCTTTA,-0.159
19,CCCCCACC,-0.435
